Here are results for 44 compounds from publication PMC4336329 (PLoS ONE, 2015).

SMILES strings stand for the structures. Hit rate of the full screen: of about 310,000 compounds, about 14,000 (4.5%) showed an effect of 50% or more. The effect is printed as a negative number. The list shows a part of the results.
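Further: peak tail current of the secondary pulse compared with the same well before compound.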

The target in this test is human ether-à-go-go-related gene (hERG) potassium channel (human, UniProt Q12809). In words: primary screen, population patch clamp on CHO cells stably expressing hERG.
Sequence of human ether-à-go-go-related gene (hERG) potassium channel (Q12809 whole entry, looked up): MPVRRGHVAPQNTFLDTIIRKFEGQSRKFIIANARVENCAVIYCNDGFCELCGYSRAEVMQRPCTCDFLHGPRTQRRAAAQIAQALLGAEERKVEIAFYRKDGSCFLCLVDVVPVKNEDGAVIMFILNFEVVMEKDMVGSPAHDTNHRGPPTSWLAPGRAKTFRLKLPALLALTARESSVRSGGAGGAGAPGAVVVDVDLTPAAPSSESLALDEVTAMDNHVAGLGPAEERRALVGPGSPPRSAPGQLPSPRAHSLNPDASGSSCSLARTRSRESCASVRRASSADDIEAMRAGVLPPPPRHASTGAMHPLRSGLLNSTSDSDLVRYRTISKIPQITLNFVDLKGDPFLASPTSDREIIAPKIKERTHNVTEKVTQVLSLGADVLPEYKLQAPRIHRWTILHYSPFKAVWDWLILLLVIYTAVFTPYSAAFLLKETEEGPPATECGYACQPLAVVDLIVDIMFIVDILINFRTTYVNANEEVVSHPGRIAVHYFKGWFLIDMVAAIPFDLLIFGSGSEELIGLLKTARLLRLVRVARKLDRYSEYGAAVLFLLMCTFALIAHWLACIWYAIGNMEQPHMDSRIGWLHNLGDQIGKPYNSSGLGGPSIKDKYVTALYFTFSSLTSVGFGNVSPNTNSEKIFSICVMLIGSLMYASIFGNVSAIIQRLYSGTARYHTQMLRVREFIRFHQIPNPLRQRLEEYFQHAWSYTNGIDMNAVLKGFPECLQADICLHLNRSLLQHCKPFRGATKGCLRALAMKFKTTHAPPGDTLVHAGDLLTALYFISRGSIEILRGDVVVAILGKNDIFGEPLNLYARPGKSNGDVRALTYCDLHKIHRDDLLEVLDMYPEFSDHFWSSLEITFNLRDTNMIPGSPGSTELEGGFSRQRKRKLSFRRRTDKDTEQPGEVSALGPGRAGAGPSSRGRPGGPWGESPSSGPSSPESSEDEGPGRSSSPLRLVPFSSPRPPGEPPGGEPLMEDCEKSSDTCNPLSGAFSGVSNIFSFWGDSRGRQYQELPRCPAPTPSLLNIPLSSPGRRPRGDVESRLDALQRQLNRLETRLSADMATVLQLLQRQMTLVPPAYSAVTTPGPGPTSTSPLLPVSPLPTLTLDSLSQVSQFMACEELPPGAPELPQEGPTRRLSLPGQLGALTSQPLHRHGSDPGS
Consider `O=C(c1ccc(-c2nc3ccccc3s2)s1)N1CCOCC1`, for which the “hERG current change (%, negative = inhibition) at 10uM” value is -6.25%.
For `CCCn1nc(NC(=O)CC(C)C)c2cc3ccccc3nc21` the value was 12%; for `CCn1c(SCc2cccnc2)nnc1-c1c[nH]c2ccccc12`, -24%.
Next, `CCOc1ccc(C(=O)OCC(=O)NC2CCCC2)cc1OCC`: 8.34%.
Take `O=C(NCc1ccco1)C(c1ccc(F)cc1)N(C(=O)Cc1cccs1)c1cccnc1` (centres unmarked): the “hERG current change (%, negative = inhibition) at 10uM” value amounted to 28.4%.
In the case of `NC(=O)/C=C\C(=O)Nc1cccc(C(F)(F)F)c1`, the “hERG current change (%, negative = inhibition) at 10uM” value was -3.45%.
For `CC1CCC2(CC1)NC(=O)N(NC(=O)c1cccs1)C2=O` (centres unmarked) the value was 9.08%.
For `CCC(NC(=O)Nn1cnnc1)(C(F)(F)F)C(F)(F)F` the value was 5.79%; for `C=CCC1NS(=O)(=O)OC(COC)C1C` (centres unmarked), 28.7%.
Next, `Cc1nc2c(-c3ccc(F)cc3)c(C)nn2c(C)c1CCC(=O)Nc1ccccc1`: 0.666%; `Cc1ccc(CNC(=O)CSc2c3c(nc4cc(Cl)ccc24)CCCC3)o1`: -8.63%; `CCN(CC)/C(=N/S(=O)(=O)c1ccc(C)cc1)c1ccccc1`: 5.07%.
Take `Cl.Cn1c(=O)c2c(nc(N3CCOCC3)n2CCNC2=NCCC2)n(C)c1=O`: the “hERG current change (%, negative = inhibition) at 10uM” value is recorded as -0.137%.
On to `Cc1ccc(C(=O)CSc2nnc(COc3ccccc3)o2)cc1`, for which the “hERG current change (%, negative = inhibition) at 10uM” value is listed as 2.36%.
Take `O=C(c1cccc(Br)c1)N1CCN(C(=O)c2cccc(Br)c2)CC1`: the “hERG current change (%, negative = inhibition) at 10uM” value is recorded as -28.5%.
As for `C=CCc1cccc(/C=N/n2cnnc2)c1O`, the “hERG current change (%, negative = inhibition) at 10uM” value is -4.97%.
For `COc1cc(/C=N/NC(=O)c2cc(C)n(-c3ccc(F)cc3)c2C)cc(OC)c1O` the value was -13.4%; for `Cc1[nH]n(-c2ccccc2)c(=O)c1C(C[N+](=O)[O-])c1ccc(Br)cc1` (centres unmarked), -9.61%; for `C/C(=N\NC(=O)CCC(=O)NCc1ccccc1)c1ccco1`, 10.9%.
As to `CC(C)N(C(=O)COC(=O)[C@@H]1CC(O)CN1S(=O)(=O)c1ccc(C(C)(C)C)cc1)C(C)C` (some centres unmarked), the “hERG current change (%, negative = inhibition) at 10uM” value is -12.6%.
As to `CC(C)NC(=O)NC(=O)COC(=O)C1CCCN1C(=O)c1cccs1` (centres unmarked), the “hERG current change (%, negative = inhibition) at 10uM” value is given as 0.855%.
For `CCOc1ccc(NC(=O)c2ccc(NS(=O)(=O)c3cccs3)cc2)cc1`, the “hERG current change (%, negative = inhibition) at 10uM” value was found to be 11%.
For `O=C(COc1ccc2ccccc2c1)N1CCN(C2CCN(Cc3ccccc3)CC2)CC1`, the “hERG current change (%, negative = inhibition) at 10uM” value is on record as -77.7%.
Consider `CCOc1ccccc1-c1cc(C(=O)N/N=C(\C)c2cccnc2)c2ccccc2n1`, for which the “hERG current change (%, negative = inhibition) at 10uM” value is recorded as -2.45%.
For `COc1ccc(CN2CC(C(=O)NCCN3CCN(c4ccccc4F)CC3)CC2=O)cc1` (centres unmarked) the value was -10.5%.
For `CC(C)N1CCN(CC#Cc2ccccc2)CC1CCO` (centres unmarked) the value was -9.9%; for `Cn1nc(C(F)(F)F)c2cc(C(=O)Nc3ccc(F)cc3)sc21`, -22.7%; for `COc1ccc(C(=O)N/N=C/c2ccccn2)cc1OC`, 13.6%.
For `Cc1ccc(NC(=S)N(CCCN2CCC(C)CC2)Cc2ccco2)cc1` the value was -72%; for `CCC[n+]1c(C)sc2c3c(ccc21)CCCC3.[I-]`, 17%.
With `NC(=O)CSCc1nc2ccccc2s1`, the “hERG current change (%, negative = inhibition) at 10uM” value is 17.3%.
With `O=C(CCCN1C(=O)/C(=C/c2cccs2)SC1=S)Nc1cc([N+](=O)[O-])ccc1O`, the “hERG current change (%, negative = inhibition) at 10uM” value was found to be 21.1%.
As to `CC(NC(=O)C1CSC2(C)CCC(=O)N12)c1ccccc1Cl` (centres unmarked), the “hERG current change (%, negative = inhibition) at 10uM” value is on record as -8.44%.
For `S=c1[nH]nc(CN2CCCCC2)n1Cc1ccccc1` the value was -5.08%.
For `CCN(CC)CCNC(=O)CCCCCn1c(=O)[nH]c2cc(C(=O)OC)ccc2c1=O` the value was -3.88%.
Next, `C=CCN1C(=O)C2(OCCCO2)c2c(C)ccc(C)c21`: -9.94%.
In the case of `COCc1cc(C)nc2sc(C(=O)Nc3ccccc3C)c(N)c12`, the “hERG current change (%, negative = inhibition) at 10uM” value was determined as 5.65%.
In the case of `O=C(Nc1cccc(-c2cscn2)c1)C1CCN(Cc2ccsc2)CC1`, the “hERG current change (%, negative = inhibition) at 10uM” value is given as -65%.
Next, `N/C(=N\OC(=O)c1cccc(Br)c1)c1ccc([N+](=O)[O-])cc1`: 17.7%; `CCOC(=O)Cc1csc(NC(=O)CSc2nnc(-c3ccc(OC)cc3)n2C)n1`: -8.6%.
For the compound `C=CCC1(CC=C)CCCN1C(=O)c1cc(COc2cccc(OC)c2)on1`, the “hERG current change (%, negative = inhibition) at 10uM” value was 16.1%.
Regarding `CCOCCCn1c(-c2ccc(Cl)cc2)n[nH]c1=S`, the “hERG current change (%, negative = inhibition) at 10uM” value came to 4.13%.
Take `CCn1c(=S)[nH]c2cc(C(=O)O)ccc21`: the “hERG current change (%, negative = inhibition) at 10uM” value is listed as 31%.
On to `O=C(CSCc1ccco1)NC1CCCC1`, for which the “hERG current change (%, negative = inhibition) at 10uM” value worked out at 12.1%.
